Experimental data published in PMC7948425.
Results are given in words; binding and its absence hold for the method and conditions named. In cells and extracts the contact can be indirect. Some entries that bind do so weakly or less than the wild type. For some of these results: Tags and fused reporters may be left off the sequences shown.

Sequences of proteins named here, by UniProt entry; tags and fusion partners are left off.
UniProt Q9UQE7: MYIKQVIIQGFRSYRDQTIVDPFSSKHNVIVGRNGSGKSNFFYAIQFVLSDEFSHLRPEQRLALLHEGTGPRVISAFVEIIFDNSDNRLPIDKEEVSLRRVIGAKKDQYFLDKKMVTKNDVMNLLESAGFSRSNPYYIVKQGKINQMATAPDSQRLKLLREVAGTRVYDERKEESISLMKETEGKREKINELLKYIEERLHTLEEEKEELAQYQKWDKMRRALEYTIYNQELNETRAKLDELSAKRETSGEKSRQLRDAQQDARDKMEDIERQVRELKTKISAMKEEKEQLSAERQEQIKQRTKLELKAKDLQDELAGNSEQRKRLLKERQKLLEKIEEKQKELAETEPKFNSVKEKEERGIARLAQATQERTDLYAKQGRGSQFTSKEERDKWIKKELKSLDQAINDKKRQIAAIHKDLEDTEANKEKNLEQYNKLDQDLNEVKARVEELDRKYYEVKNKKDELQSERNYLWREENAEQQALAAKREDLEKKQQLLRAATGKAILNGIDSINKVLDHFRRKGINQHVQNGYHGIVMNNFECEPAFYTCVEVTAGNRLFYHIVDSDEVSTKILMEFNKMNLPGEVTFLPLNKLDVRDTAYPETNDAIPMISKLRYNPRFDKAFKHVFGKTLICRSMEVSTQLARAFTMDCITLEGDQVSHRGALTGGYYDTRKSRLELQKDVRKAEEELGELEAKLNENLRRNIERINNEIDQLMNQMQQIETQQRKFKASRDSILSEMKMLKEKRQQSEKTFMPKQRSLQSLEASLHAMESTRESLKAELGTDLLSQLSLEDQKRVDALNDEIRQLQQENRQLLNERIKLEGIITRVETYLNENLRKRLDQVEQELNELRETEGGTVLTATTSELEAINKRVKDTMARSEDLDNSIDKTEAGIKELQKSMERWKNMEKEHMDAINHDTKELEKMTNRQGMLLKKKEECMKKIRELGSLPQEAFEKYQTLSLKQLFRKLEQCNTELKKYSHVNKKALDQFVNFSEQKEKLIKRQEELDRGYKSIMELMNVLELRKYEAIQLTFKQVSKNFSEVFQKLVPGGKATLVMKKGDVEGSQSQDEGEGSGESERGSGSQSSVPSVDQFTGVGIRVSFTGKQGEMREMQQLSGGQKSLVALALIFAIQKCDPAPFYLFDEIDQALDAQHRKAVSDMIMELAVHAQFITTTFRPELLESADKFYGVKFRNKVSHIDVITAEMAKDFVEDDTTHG

Columns and labels:
[1] = molecular target: T1, PDS5A with FLAG/streptavidin binding peptide dual epitope tag, from the gene-edited endogenous allele (human (endogenous in HCT116)) (UniProt Q29RF7); experiment: co-IP; dual-affinity purification (FLAG/SBP) from nuclear extracts (1 or 2 mg) of HCT116 epitope-tagged derivatives and parental cells, Western blot with USP13 and FLAG antibodies
T1 sequence: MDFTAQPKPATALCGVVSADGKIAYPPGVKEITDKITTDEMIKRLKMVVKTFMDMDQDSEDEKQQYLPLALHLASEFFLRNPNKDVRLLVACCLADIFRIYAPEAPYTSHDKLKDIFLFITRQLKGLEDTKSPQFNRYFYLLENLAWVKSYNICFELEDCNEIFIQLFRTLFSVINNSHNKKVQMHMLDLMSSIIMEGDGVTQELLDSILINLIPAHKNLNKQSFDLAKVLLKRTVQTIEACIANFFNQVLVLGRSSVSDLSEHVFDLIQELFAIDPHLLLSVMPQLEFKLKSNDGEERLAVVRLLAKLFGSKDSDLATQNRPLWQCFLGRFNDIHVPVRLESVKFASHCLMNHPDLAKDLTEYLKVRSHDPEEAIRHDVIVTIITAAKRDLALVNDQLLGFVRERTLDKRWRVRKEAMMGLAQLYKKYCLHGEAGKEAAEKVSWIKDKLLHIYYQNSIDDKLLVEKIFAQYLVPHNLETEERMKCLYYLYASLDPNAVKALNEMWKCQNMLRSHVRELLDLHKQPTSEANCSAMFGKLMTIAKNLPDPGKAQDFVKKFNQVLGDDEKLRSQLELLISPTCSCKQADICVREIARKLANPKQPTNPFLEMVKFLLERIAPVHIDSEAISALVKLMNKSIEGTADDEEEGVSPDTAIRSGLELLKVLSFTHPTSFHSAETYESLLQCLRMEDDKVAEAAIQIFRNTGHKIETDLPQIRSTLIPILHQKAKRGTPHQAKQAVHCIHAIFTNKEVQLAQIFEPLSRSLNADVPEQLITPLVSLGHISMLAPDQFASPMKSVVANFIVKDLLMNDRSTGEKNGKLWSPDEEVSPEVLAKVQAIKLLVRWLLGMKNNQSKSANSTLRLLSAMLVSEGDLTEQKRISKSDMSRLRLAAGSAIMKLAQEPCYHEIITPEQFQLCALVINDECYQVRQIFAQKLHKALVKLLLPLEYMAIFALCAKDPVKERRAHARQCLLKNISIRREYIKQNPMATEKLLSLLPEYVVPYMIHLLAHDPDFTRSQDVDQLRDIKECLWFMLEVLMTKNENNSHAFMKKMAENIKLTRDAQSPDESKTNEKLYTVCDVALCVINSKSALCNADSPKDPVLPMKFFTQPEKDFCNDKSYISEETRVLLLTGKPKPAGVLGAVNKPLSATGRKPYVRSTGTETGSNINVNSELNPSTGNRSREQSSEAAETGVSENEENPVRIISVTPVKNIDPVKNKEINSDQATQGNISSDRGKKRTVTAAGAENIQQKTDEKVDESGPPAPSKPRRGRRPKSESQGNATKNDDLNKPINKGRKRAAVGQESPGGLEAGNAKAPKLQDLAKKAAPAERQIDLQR

[2] = molecular target: T2, WAPL with FLAG/streptavidin binding peptide dual epitope tag, from the gene-edited endogenous allele (human (endogenous in HCT116)) (UniProt Q7Z5K2); experiment: as above
T2 sequence: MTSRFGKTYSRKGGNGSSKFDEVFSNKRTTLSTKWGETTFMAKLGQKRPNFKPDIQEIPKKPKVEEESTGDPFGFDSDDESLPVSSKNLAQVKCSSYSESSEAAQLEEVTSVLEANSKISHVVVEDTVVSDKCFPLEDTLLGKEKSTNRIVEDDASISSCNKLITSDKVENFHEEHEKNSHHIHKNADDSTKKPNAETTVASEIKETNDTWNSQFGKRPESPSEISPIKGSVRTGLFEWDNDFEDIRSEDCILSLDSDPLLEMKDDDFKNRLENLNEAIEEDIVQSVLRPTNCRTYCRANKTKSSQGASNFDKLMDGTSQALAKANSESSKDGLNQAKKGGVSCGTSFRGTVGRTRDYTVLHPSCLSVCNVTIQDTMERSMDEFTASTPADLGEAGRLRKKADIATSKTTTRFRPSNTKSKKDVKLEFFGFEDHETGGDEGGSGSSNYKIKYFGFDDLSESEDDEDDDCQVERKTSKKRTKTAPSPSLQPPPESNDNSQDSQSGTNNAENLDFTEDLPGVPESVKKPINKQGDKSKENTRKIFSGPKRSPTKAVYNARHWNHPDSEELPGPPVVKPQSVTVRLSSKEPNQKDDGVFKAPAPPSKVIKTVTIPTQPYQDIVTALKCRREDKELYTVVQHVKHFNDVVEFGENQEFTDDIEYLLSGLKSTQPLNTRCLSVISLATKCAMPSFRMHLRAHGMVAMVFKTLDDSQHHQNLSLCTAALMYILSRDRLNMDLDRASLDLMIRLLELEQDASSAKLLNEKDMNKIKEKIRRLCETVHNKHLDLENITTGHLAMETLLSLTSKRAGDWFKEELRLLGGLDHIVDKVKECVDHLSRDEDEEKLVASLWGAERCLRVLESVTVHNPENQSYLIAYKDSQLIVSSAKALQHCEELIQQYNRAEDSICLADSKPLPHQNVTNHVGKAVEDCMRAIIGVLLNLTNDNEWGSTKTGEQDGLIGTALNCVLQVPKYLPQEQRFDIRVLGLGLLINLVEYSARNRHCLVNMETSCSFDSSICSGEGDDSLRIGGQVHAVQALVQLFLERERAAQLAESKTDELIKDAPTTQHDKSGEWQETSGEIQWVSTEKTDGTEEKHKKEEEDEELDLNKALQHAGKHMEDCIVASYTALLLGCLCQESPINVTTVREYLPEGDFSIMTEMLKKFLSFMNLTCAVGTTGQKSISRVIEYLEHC

[3] = molecular target: SMC3, endogenous (human (endogenous in HCT116, 293T, HeLa, RPE-hTERT)) (UniProt Q9UQE7); experiment: co-IP; SMC3 antibody (or IgG control) on whole cell lysates (500 μg) of 293T, HCT116, HeLa and RPE-hTERT cells, TBS with 0.1% NP-40, 4 °C overnight, protein A/G agarose; Western blot with USP13 and STAG2 antibodies; also 293T cells treated 20 h with DMSO, hydroxyurea, RO-3306 or nocodazole
[4] = molecular target: SMC3, endogenous (human (endogenous in HCT116, 293T, HeLa, RPE-hTERT)) (UniProt Q9UQE7); experiment: co-IP; SMC3 antibody on soluble and chromatin fractions of 293T cells; Western blot with STAG2 and USP13 antibodies

Measured: binding

B1: Ubiquitin-Specific Protease 13 (USP13), endogenous (enzyme, UniProt Q92995 1-863)
chain: MQRRGALFGMPGGSGGRKMAAGDIGELLVPHMPTIRVPRSGDRVYKNECAFSYDSPNSEGGLYVCMNTFLAFGREHVERHFRKTGQSVYMHLKRHVREKVRGASGGALPKRRNSKIFLDLDTDDDLNSDDYEYEDEAKLVIFPDHYEIALPNIEELPALVTIACDAVLSSKSPYRKQDPDTWENELPVSKYANNLTQLDNGVRIPPSGWKCARCDLRENLWLNLTDGSVLCGKWFFDSSGGNGHALEHYRDMGYPLAVKLGTITPDGADVYSFQEEEPVLDPHLAKHLAHFGIDMLHMHGTENGLQDNDIKLRVSEWEVIQESGTKLKPMYGPGYTGLKNLGNSCYLSSVMQAIFSIPEFQRAYVGNLPRIFDYSPLDPTQDFNTQMTKLGHGLLSGQYSKPPVKSELIEQVMKEEHKPQQNGISPRMFKAFVSKSHPEFSSNRQQDAQEFFLHLVNLVERNRIGSENPSDVFRFLVEERIQCCQTRKVRYTERVDYLMQLPVAMEAATNKDELIAYELTRREAEANRRPLPELVRAKIPFSACLQAFSEPENVDDFWSSALQAKSAGVKTSRFASFPEYLVVQIKKFTFGLDWVPKKFDVSIDMPDLLDINHLRARGLQPGEEELPDISPPIVIPDDSKDRLMNQLIDPSDIDESSVMQLAEMGFPLEACRKAVYFTGNMGAEVAFNWIIVHMEEPDFAEPLTMPGYGGAASAGASVFGASGLDNQPPEEIVAIITSMGFQRNQAIQALRATNNNLERALDWIFSHPEFEEDSDFVIEMENNANANIISEAKPEGPRVKDGSGTYELFAFISHMGTSTMSGHYICHIKKEGRWVIYNDHKVCASERPPKDLGYMYFYRRIPS
binds: all assays above
